These results are taken from PubChem BioAssay AID488969 (Vanderbilt High Throughput Screening Facility, 2010).

The full ranking holds about 110,000 compounds; the median of “z-score” is about -0.1, and the highest 2% start at about 2. This is one part of the list. Activity calls are given as the source filed them.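 How the source made its calls: active means z-score in the third read window above 3 or below -3; inactive means the rest.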

The target of the test is Metabotropic glutamate receptor 8 (Rattus norvegicus) (UniProt P70579). In words: rat mGluR8 modulators via GIRK flux, primary screen, cell-based, thallium flux, HTS (AID 488969). The conditions noted are these: HEK293 rat mGluR8, GIRK (G protein-gated inwardly rectifying potassium channel) thallium flux, FluoZin2; at 10 µM; stronger effect = higher value; submaximal glutamate (EC20) added with thallium.
Sequence of UniProt P70579 (P70579 whole entry, looked up): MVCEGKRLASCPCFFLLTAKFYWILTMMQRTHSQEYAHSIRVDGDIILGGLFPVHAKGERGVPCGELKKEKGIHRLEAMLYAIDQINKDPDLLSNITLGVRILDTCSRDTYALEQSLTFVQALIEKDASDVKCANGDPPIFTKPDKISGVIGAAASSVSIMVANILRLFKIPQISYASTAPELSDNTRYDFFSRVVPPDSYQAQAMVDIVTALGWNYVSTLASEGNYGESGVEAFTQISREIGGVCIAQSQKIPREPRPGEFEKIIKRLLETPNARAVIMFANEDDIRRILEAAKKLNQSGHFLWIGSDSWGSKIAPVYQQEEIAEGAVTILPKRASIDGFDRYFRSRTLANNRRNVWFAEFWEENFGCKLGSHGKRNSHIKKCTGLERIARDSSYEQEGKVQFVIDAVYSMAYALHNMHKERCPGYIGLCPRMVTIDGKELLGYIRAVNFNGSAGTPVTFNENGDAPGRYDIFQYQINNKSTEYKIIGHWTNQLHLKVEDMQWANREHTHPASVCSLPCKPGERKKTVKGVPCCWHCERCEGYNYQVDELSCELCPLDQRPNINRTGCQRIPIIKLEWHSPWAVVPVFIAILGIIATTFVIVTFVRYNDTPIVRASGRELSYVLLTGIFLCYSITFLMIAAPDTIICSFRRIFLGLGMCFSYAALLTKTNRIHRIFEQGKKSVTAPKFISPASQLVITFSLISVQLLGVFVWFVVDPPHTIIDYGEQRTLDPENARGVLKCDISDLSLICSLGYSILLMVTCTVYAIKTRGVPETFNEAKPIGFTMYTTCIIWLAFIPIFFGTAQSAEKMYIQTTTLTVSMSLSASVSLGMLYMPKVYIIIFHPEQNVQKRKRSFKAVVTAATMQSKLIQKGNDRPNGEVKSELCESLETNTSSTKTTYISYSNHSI
`COc1ccccc1N1CCN(C(=O)c2oc3cc(C)c(C)cc3c2C)CC1` came in with a z-score of 0.102. In the case of `COCCN(C(=O)Nc1ccccc1)c1ccccc1C` it was -0.0144; in that of `Cc1ccc(-c2nc(N3CCOCC3)sc2C(=O)N2CCCCC2)cc1`, -0.188; in that of `COc1ccc(/C=C(/C#N)S(=O)(=O)c2ccc(C)cc2)cc1`, -0.481. Under `Cc1nnc(N2CCOCC2)c2ccccc12` stands 0.279. Under `COn1c(=O)c(-c2cccs2)[n+]([O-])c2ccccc21` stands 1.16. Compound `COc1ccc(N(CC(=O)NC2CCCC2)C(=O)Cn2nnc(-c3ccc(F)cc3)n2)cc1OC` came in with a z-score of 0.0387.

Turning to `CCN1CCN(CC2CC3C=CC2C3)CC1` (stereo not drawn), the z-score is -0.713. Under `O=C(c1ccc(Cl)cc1)c1cnc2ccccn12` stands -0.0464; under `Cc1ncc(N=Nc2ccccc2)c(-c2ccccc2)n1`, -0.305; under `O=C(Nc1ccccc1N1CCCC1)c1cc2ccccc2o1`, -0.49.

In turn, `CCN(c1cccc(C)c1)S(=O)(=O)c1ccc2c3c(cccc13)C(=O)N2` yielded a z-score of 0.342.

`O=C(NCCCN1CCOCC1)C(=O)NCC1CCCO1` (stereo not drawn) showed a z-score of -0.101. In the case of `COCCn1nnnc1C(C(C)C)N(Cc1cccnc1)Cc1ccccc1Cl` (stereo not drawn) it was 0.0403; in that of `COc1ccc(NC(=O)CSc2nc3c(c(=O)n2-c2ccccc2OC)SCC3)cc1`, -0.282. In the case of `CC(C)C(NC(=O)C1CCCCC1)C(=O)Nc1ccc2c(c1)OCCO2` (stereo not drawn) it was 0.226; in that of `N#Cc1nc(-c2ccc(OCc3ccc(Cl)cc3)cc2)oc1N1CCOCC1`, 0.132. In the case of `C=CCN1C(=NC(=O)CCC(=O)O)SC2CS(=O)(=O)CC21` (stereo not drawn) it was 0.00517; in that of `Cn1c(=O)c(NCCO)c2c3c(cccc31)C(=O)c1ccccc1-2`, -2.23; in that of `CCCCn1c(SCn2nnc3ccccc3c2=O)nc2cc(S(N)(=O)=O)ccc21`, -0.835.

`O=C(COC(=O)Cc1ccc(Br)cc1)NC12CC3CC(CC(C3)C1)C2`: the z-score was -0.0384.

Take `CCN(CC)C(=O)CSc1nnc(-c2ccc(F)cc2)n1N`: the z-score was determined as 0.0557. In the case of `CC(=O)NCCC(=O)Nc1nc(C)c(Cc2ccc3c(c2)OCO3)s1` it was -0.403; in that of `Cc1ccc(N=Cc2c(O)n(-c3ccc4c(c3)OCO4)c(=O)c3ccccc23)cc1`, -0.43. In the case of `O=S(=O)(NCCOc1ccccc1)c1ccc2ccccc2c1` it was 0.0704; in that of `CCOc1cccc(N2C(=O)CC(N3CCN(c4nc5ccccc5s4)CC3)C2=O)c1` (stereo not drawn), 0.0776. In the case of `Clc1ccc(-c2csc(N3CCSCC3)n2)cc1` it was -0.0793. Compound `CC1CCN(C(c2cccs2)c2nnnn2Cc2ccccc2)CC1` (stereo not drawn) had a z-score of 0.141. Compound `CCCC(C)C(=O)Nc1ccncc1` (stereo not drawn) registered a z-score of 0.0464. In the case of `CS(=O)(=O)N(CC(=O)Nc1cc(Cl)ccc1Cl)c1ccccc1` it was -0.399; in that of `COc1cccc(/C=C(/CC(=O)Nc2ccc(N3CCOCC3)cc2)c2nc3ccccc3s2)c1`, 0.107. Under `CCCOC(=O)c1ccc(Nc2cc(C)nc3ncnn23)cc1` stands -0.0505; under `CCCCCCCOc1ccc(-c2ccc(C#N)cn2)cc1`, -0.0858. In turn, `COc1ccccc1CN(C)C(=O)C1(c2ccc(Cl)cc2)CC1` returned a z-score of -1.32.

Consider `Cc1ccc(S(=O)(=O)N(CC(=O)NC2CCCCCC2)c2ccccc2F)cc1`, for which the z-score was -0.0358. In the case of `COc1ccc2c(c1)C(=O)/C(=C/C=C/c1ccccc1)CC2`, the z-score came to 0.0131. In the case of `N#CCSc1nc2c(c(=O)n1Cc1ccco1)C1(CCCC1)Cc1ccccc1-2` it was -1.12; in that of `COc1cccc(-c2csc(N3CCN(C(=O)Nc4ccc(F)cc4)CC3)n2)c1`, -2.33. Take `CCC(=O)Nc1cccc(NC(=S)NC(=O)c2ccccc2Cl)c1`: the z-score was -0.385.

The compound `Cc1nn2c(=O)cc(COC(=O)c3ccc(S(=O)(=O)N4CCCCC4)cc3)nc2s1` came in with a z-score of -0.167. The compound `CCS(=O)(=O)Nc1ccc(Cc2ccncc2)cc1` showed a z-score of 0.0973. Under `CC1(C)Cc2c(c(=S)nc(-c3ccccc3)n2CCO)CO1` stands -0.0783; under `COc1ccc(CCNC(=O)c2ccc(Cl)cc2Cl)cc1`, -0.0103. Under `CC(=O)C1=C(N2CCCCC2)CCC1=O` stands 0.0732.

`CCS(=O)(=O)NCCCc1ccccc1` came in with a z-score of -0.116. Under `O=c1c(F)cn(C2CCCO2)c(=O)n1Cc1ccccc1Cl` (stereo not drawn) stands 0.24.

Take `CCOCCCNC(=O)C(C)NS(=O)(=O)c1ccc(C)cc1` (stereo not drawn): the z-score is -0.0235.

The compound `CCOc1ccc(-c2cnc3n2CCC3)cc1` registered a z-score of -0.153. Under `O=C(c1ccco1)N(CCC(c1ccccc1)c1ccco1)Cc1ccccc1` (stereo not drawn) stands -0.0064; under `COc1ccc(CN2CCN(C(=O)CC(C)C)CC2)cc1OC`, 0.19; under `CCOc1cccc(/C(O)=C2/C(=O)C(=O)N(CCN3CCOCC3)C2c2cccnc2)c1` (stereo not drawn), 0.184. Consider `CC(=O)c1ccc(NC(=O)C2CCC(C)NC2=O)cc1` (stereo not drawn), for which the z-score was -0.0742. In the case of `CCC(C)NC(=O)c1cc(Sc2nnc(C)s2)nc2ccccc12` (stereo not drawn) it was -0.044; in that of `COc1ccc(C(=O)c2ccc(N3CCN(C(=O)c4ccc(F)cc4)CC3)c(F)c2)cc1Br`, 0.178. Under `COc1ccc(CCNC(=O)c2cc(-c3ccc(C)cc3O)n[nH]2)cc1OC` stands -0.117. Under `O=C(NN=C1CCCC1)C(=O)Nc1cccc(C(F)(F)F)c1` stands 0.0618; under `COc1ccc(/C=C2\SC(=O)N(CC(=O)NNC(=O)c3ccccc3O)C2=O)cc1`, 0.0269; under `COc1ccc(N(CC(=O)NC2CCCCCCC2)S(=O)(=O)c2c(C)nn(C)c2C)cc1`, -0.281. `C/C(=N\NC(=O)CN1CCN(S(=O)(=O)c2ccc(C)cc2)CC1)c1cccnc1` had a z-score of 0.65. In the case of `O=C(CC(C(=O)O)c1ccccc1)Nc1ccccc1` (stereo not drawn) it was -0.274; in that of `O=C(NCCC1=CCCCC1)c1cnccn1`, 0.163. Under `Fc1ccc2nc(Nc3nc4c(F)cccc4s3)sc2c1` stands active: 4.98.

For the compound `COc1ccc(Sc2ccc(NC(=O)c3ccccc3Cl)cc2C#N)cc1`, the z-score is -0.148.

As for `c1ccc(Nc2ncnc3c2oc2ccccc23)cc1`, the z-score came out at 0.192.

Take `COc1ccccc1N1CCN(C(=O)c2cc3cc(Br)ccc3oc2=O)CC1`: the z-score was -0.432. In the case of `Cc1c(NC(=S)N/N=C/c2ccc(N(C)C)cc2)c(=O)n(-c2ccccc2)n1C` it was -0.203; in that of `CCOC(=O)CSc1snnc1-c1ccccc1`, -1.23. In the case of `COc1ccc(Cl)cc1NC(=O)CN(C)C1CCCCC1` it was 0.225; in that of `COc1ccc(C)cc1NCC(=O)Nc1ccc(C(C)(C)C)cc1`, -0.443; in that of `Cc1ccc(S(=O)(=O)N(Cc2ccc(F)cc2)Cc2ccco2)cc1`, 0.274. Turning to `N#Cc1cc2c(nc1SCc1ccncc1)CCC2`, the z-score was 0.0476.

`COc1ccc(CCNC(=S)Nc2cc(C)cc(C)c2)cc1` yielded a z-score of 0.195. For `CC1CC(=O)N(c2ccc(NCc3ccc(Cl)cc3)c([N+](=O)[O-])c2)C1=O` (stereo not drawn), the z-score is -0.238.
